Target: T1, β-lactamase-SBP fusion
T1 construct: also called SBP-tagged β-lactamase
Assay: SPR (BIAcoreX), β-lactamase-SBP amine-coupled to the chip

B1: streptavidin mutein SBPM18 (S27A, G48T) (designed binder)
chain: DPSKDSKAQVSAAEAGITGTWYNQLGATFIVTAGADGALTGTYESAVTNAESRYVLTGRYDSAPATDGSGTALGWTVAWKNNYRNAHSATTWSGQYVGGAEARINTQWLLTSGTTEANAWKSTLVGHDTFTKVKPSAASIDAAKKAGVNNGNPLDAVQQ
notes: Secreted from B. subtilis with the sacB signal peptide; tetramer in solution (64.5 kDa found, 66 kDa expected); In column experiments it was coupled to Affi-gel 15; also called Streptavidin SBPM18
  Kd: 15.7 nM
  koff: 0.000711 s⁻¹
  kon: 45300 M⁻¹ s⁻¹

Reference: US20140378657A1 (UTI LIMITED PARTNERSHIP, published 2014)
